Patent US20220267438A1 (Janssen / Centocor, published 2022)

T1: human BCMA (B cell maturation antigen, TNFRSF17) on cells (human, UniProt Q02223 1-184)
T1 construct: whole, on cells; Target on H929 or MM.1R GPRC5D knockout cells, K562 cells expressing human BCMA, HEK293 cells of the cell microarray, and BCMA-only lymphoma lines; also called CD269; surface BCMA
T1 sequence (looked up): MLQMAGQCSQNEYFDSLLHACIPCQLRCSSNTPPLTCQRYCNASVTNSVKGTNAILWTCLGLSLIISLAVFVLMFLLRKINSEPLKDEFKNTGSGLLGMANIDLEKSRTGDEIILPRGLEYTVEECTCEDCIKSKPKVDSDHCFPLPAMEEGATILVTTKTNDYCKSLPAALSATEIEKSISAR

T2: BCMW37 (recombinant human BCMA antigen) (human, UniProt Q02223 1-54, limits assumed)
T2 construct: also called BCMA BCMW37 chain; human BCMA (SPR antigen)
T2 sequence (looked up): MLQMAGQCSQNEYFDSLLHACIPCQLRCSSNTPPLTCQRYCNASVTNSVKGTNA

B1: BGCB491 (other)
heavy: QVQLQQSGPRLVRPSQTLSLTCAISGDSVFNNNAAWSWIRQSPSRGLEWLGRTYYRSKWLYDYAVSVKSRITVNPDTSRNQFTLQLNSVTPEDTALYYCARGYSSSFDYWGQGTLVTVSSASTKGPSVFPLAPSSKSTSGGTAALGCLVKDYFPEPVTVSWNSGALTSGVHTFPAVLQSSGLYSLSSVVTVPSSSLGTQTYICNVNHKPSNTKVDKKVEPKSCDKTHTCPPCPAPEAAGGPSVFLFPPKPKDTLMISRTPEVTCVVVSVSHEDPEVKFNWYVDGVEVHNAKTKPREEQYNSTYRVVSVLTVLHQDWLNGKEYKCKVSNKALPAPIEKTISKAKGQPREPQVYTLPPSREEMTKNQVSLSCAVKGFYPSDIAVEWESNGQPENNYKTTPPVLDSDGSFFLVSKLTVDKSRWQQGNVFSCSVMHEALHNRFTQKSLSLSPGKGGGGSGGGGSGGGGSGGGGS[letters of about 100 residues not shown]QFPHTFGQGTKLEIKGGSEGKSSGSGSESKSTGGSQVTLKESGPVLVKPTETLTLTCTVSGFSLTNIRMSVSWIRQPPGKALEWLAHIFSNDEKSYSTSLKSRLTISRDTSKSQVVLTLTNVDPVDTATYYCARMRLPYGMDVWGQGTTVTVSS
light: QSALTQPASVSGSPGQSITISCTGTSSNIGTYKFVSWYQQHPDKAPKVLLYEVSKRPSGVSSRFSGSKSGNTASLTISGLQAEDQADYHCVSYAGSGTLLFGGGTKLTVLGQPKAAPSVTLFPPSSEELQANKATLVCLISDFYPGAVTVAWKADSSPVKAGVETTTPSKQSNNKYAASSYLSLTPEQWKSHRSYSCQVTHEGSTVEKTVAPTECS
chain: EIVLTQSPGTLSLSPGERATLSCRASQSISSSFLTWYQQKPGQAPRLLIYGASSRATGIPDRFSGGGSGTDFTLTISRLEPEDFAVYYCQHYGSSPMYTFGQGTKLEIKGGSEGKSSGSGSESKSTGGS[letters of about 100 residues not shown]DEGYSSGHYYGMDVWGQGTTVTVSSEPKSSDKTHTCPPCPAPEAAGGPSVFLFPPKPKDTLMISRTPEVTCVVVSVSHEDPEVKFNWYVDGVEVHNAKTKPREEQYNSTYRVVSVLTVLHQDWLNGKEYKCKVSNKALPAPIEKTISKAKGQPREPQVYTLPPSREEMTKNQVSLWCLVKGFYPSDIAVEWESNGQPENNYKTTPPVLDSDGSFFLYSKLTVDKSRWQQGNVFSCSVMHEALHNHYTQKSLSLSPGK
notes: Trispecific IgG1 antibody (L234A, L235A, D265S); Heavy chain 1 = anti-CD3 (CD3B376) Fab heavy chain, hole and RF mutations, with C-terminal anti-GPRC5D scFv (GC5B680); Heavy chain 2 = anti-BCMA scFv (BCMB519) - Fc knob; also called JNJ-79635322; BCMA×GPRC5D×CD3 trispecific mAb
B2: BGCB463 (other)
heavy: QVQLQQSGPRLVRPSQTLSLTCAISGDSVFNNNAAWSWIRQSPSRGLEWLGRTYYRSKWLYDYAVSVKSRITVNPDTSRNQFTLQLNSVTPEDTALYYCARGYSSSFDYWGQGTLVTVSSASTKGPSVFPLAPSSKSTSGGTAALGCLVKDYFPEPVTVSWNSGALTSGVHTFPAVLQSSGLYSLSSVVTVPSSSLGTQTYICNVNHKPSNTKVDKKVEPKSCDKTHTCPPCPAPEAAGGPSVFLFPPKPKDTLMISRTPEVTCVVVSVSHEDPEVKFNWYVDGVEVHNAKTKPREEQYNSTYRVVSVLTVLHQDWLNGKEYKCKVSNKALPAPIEKTISKAKGQPREPQVYTLPPSREEMTKNQVSLSCAVKGFYPSDIAVEWESNGQPENNYKTTPPVLDSDGSFFLVSKLTVDKSRWQQGNVFSCSVMHEALHNRFTQKSLSLSPGK
light: B1 light
chain: [letters of about 100 residues not shown]QFPHTFGQGTKLEIKGGSEGKSSGSGSESKSTGGSQVTLKESGPVLVKPTETLTLTCTVSGFSLTNIRMSVSWIRQPPGKALEWLAHIFSNDEKSYSTSLKSRLTISRDTSKSQVVLTLTNVDPVDTATYYCARMRLPYGMDVWGQGTTVTVSSEPKSSDKTHTCPPCPAPEAAGGPSVFLFPPKPKDTLMISRTPEVTCVVVSVSHEDPEVKFNWYVDGVEVHNAKTKPREEQYNSTYRVVSVLTVLHQDWLNGKEYKCKVSNKALPAPIEKTISKAKGQPREPQVYTLPPSREEMTKNQVSLWCLVKGFYPSDIAVEWESNGQPENNYKTTPPVLDSDGSFFLYSKLTVDKSRWQQGNVFSCSVMHEALHNHYTQKSLSLSPGKGGSEGKSSGSGSESKSTGGSEIVLTQSPGTLSLSPGERATLSCRASQSISSSFLTWYQQKPGQAPRLLIYGASSRATGIPDRFSGGGSGTDFTLTISRLEPEDFAVYYCQHYGSSPMYTFGQGTKLEIKGGSEGKSSGSGSESKSTGGS[letters of about 100 residues not shown]DEGYSSGHYYGMDVWGQGTTVTVSS
notes: Trispecific IgG1 antibody (L234A, L235A, D265S); Heavy chain 1 = anti-CD3 (CD3B376) Fab heavy chain with hole and RF mutations; also called BGCB463.003; BGCB463.004

Tests used:
[1] = target: T1, human BCMA (B cell maturation antigen, …); test: flow cytometry, H929-GPRC5D-KO cells (BCMA arm), 1 h 37C; Run 5
Method: Flow cytometry was used to evaluate the BCMA and GPRC5D arm binding of BGCB491 in vitro. BGCB491 and isotype control were tested on a panel of H929-WT, H929-BCMA-KO, H929-GPRC5D-KO, and H929-BCMA/GPRC5D-KO cell lines after 1-hour 37° C. incubation.

[2] = target: T3, CD3W200, recombinant CD3εγ heterodimer construct (human, UniProt P07766 22-118; P09693 23-103); test: SPR; antigen recombinant CD3εγ heterodimer construct (CD3W200)
T3 construct: also called human CD3 (SPR antigen for BGCB491)

[3] = target: T3, CD3W200, recombinant CD3εγ heterodimer …; test: SPR, CD3 binding after thermal stress
[4] = target: T2, BCMW37 (recombinant human BCMA antigen); test: SPR, BCMA binding, release sample
[5] = target: T4, human CD3 (CD3ε of the TCR/CD3 complex) on primary human pan T cells (human, UniProt P07766); test: flow cytometry, human pan T cells, Donor 3, 1 h 37C; average of runs
T4 construct: whole, on cells; On T cells CD3ε stands in the whole TCR/CD3 complex
Method: (§1) For binding of BGCB463 to human and cynomolgus Pan T cells, three human donors (Hemacare) were selected, quickly thawed, resuspended, and aliquoted into a 96-well plate at 1×10⁶ cells/mL. Cells were then washed, Fc blocked if necessary (Innovex), and stained with viability dye (Invitrogen). BGCB463 and its corresponding isotype (B23B251) were diluted in complete media to an initial concentration of 2 μM and 1:3 serial dilutions in duplicate were performed for a dose-response curve. The cells were incubated with molecules at 4° C. or 37° C. for 1 hour. When necessary, incubation with 90% human serum (Sigma) was also performed as described above.
(§2) First, FACS-based binding for GPRC5D and BCMA binding arms of the trispecific molecule was determined by measuring the effective concentration (EC) range from a dose-response curve using a 4-parameter fit at 37° C. for 1 hr. This was assessed using an H929 suite of cells (WT, GPRC5D-KO, BCMA-KO, and GPRC5D/BCMA KO), and a similar MM.1R suite. Cell based EC₅₀ is approximately 13 nM for WT H929 (FIGS. 2A-2D, Table 7) and 2.4 nM for WT MM.1R (FIGS. 3A-3D, Table 8). […] Next, cell-based EC₅₀ was determined for the CD3-binding Fab arm using purified Pan T cells from three random donors. […] Next, dose responsive binding was assessed at 4° C. to remove any potential biological effects. […]

[6] = target: T1, human BCMA (B cell maturation antigen, …); test: flow cytometry, H929 GPRC5D KO cells, 1 h 37C; Run 3
Method: First, FACS-based binding for GPRC5D and BCMA binding arms of the trispecific molecule was determined by measuring the effective concentration (EC) range from a dose-response curve using a 4-parameter fit at 37° C. for 1 hr. This was assessed using an H929 suite of cells (WT, GPRC5D-KO, BCMA-KO, and GPRC5D/BCMA KO), and a similar MM.1R suite. Cell based EC₅₀ is approximately 13 nM for WT H929 (FIGS. 2A-2D, Table 7) and 2.4 nM for WT MM.1R (FIGS. 3A-3D, Table 8). A clear avidity affect is observed as EC₅₀ and Bmax are both reduced in GPRC5D-KO and BCMA-KO lines which test monovalent binding of target binding arms (Table 7). Next, cell-based EC₅₀ was determined for the CD3-binding Fab arm using purified Pan T cells from three random donors. […] Next, dose responsive binding was assessed at 4° C. to remove any potential biological effects. As shown in FIGS. 5A-5C, binding is stronger (50-100 nM) at 4° C., compared to 37° C., which may indicate internalization. Additionally, two expression lots of BGCB463 (BGCB463.003 from transient transfection and BGCB463.004 from a stable transfection pool), were directly compared with binding to H929, MM.1R, and Pan T cells and no differences were noted (FIGS. 6A-6C).

[7] = target: T4, human CD3 (CD3ε of the TCR/CD3 complex) …; test: flow cytometry, human pan T cells, Donor 3, 1 h 37C; Run 1
Method: as §1, §2

[8] = target: T5, cynomolgus GPRC5D on K562 cells (cynomolgus monkey); test: flow cytometry on K562 cells expressing cynomolgus GPRC5D, 1 hr 37 C, Run 2
T5 construct: whole, on cells; also called cyno GPRC5D
Method: FIGS. 9A-E. BGCB463 (circles) or negative control B23B251 (triangles) were all incubated with K562 cells expressing human GPRC5D (FIG. 9A), human BCMA (FIG. 9B), cynomolgus GPRC5D (FIG. 9C) or cynomolgus BCMA (FIG. 9D) for 1 hr at 37° C. at a starting concentration of 2 μM. After secondary detection with AF647-anti-human IgG, the MFI signal was analyzed to generate an EC₅₀ and EC₉₀ (FIG. 9E). Data are representative of two independent experiments.
The GPRC5D (i.e., GC5B680) and BCMA binding arms were assessed for cross-reactivity to cynomolgus monkey as part of the BGCB463 molecule, which uses the identical binding arms as BGCB491. Cross reactivity to cynomolgus monkeys was profiled for both target-binding scFv arms using FACS-based cell binding at 37° C. for 1 hour with K562 stably expressing human or cynomolgus monkey GPRC5D or BCMA. The cell-based EC₅₀ value for the GC5B680 scFv arm was approximately 30 nM against human GPRC5D-expressing cells and about 10-fold weaker (approximately 400 nM) on cynomolgus monkey GPRC5D-expressing cells.

[9] = target: T4, human CD3 (CD3ε of the TCR/CD3 complex) …; test: flow cytometry, human pan T cells, Donor 1, 1 h 37C; Run 4
Method: as §1, §2

[10] = target: T4, human CD3 (CD3ε of the TCR/CD3 complex) …; test: flow cytometry, human pan T cells, Donor 3, 1 h 37C; Run 3
Method: as §1, §2

| Binder | EC50 [1] | Kd [2] | Kd [3] | Kd [4] | EC50 [5] | EC50 [6] | EC50 [7] | EC50 [8] | EC50 [9] | EC50 [10] |
| --- | --- | --- | --- | --- | --- | --- | --- | --- | --- | --- |
| B1 | 53 nM | 25 nM | 25.8 nM | 0.212 nM |  |  |  |  |  |  |
| B2 |  |  |  |  | 354 nM | 221 nM | 549 nM | 310 nM | 210 nM | 360 nM |
